# From PubChem BioAssay AID2675 (National Center for Advancing Translational Sciences (NCATS), 2010)
# Screen size: about 280,000 compounds; about 100 (0.036%) were called active. The shares of active, inactive and inconclusive entries below differ from those in the screen. The call rests on the fitted dose curve; in most records, active means well fitted inhibition curve with a large enough effect in the signal ratio, with a control signal flat (not every such curve was filed as active); inconclusive means small, poorly fitted or top-dose-only effect, or effect the other way, or a change in a side signal; inactive means no such curve, though single readings can be large or run the other way; the % refers to the signal ratio. Where the call is inconclusive, the potency comes from a doubtful curve fit. “Side channel” marks fits to a control or component signal instead of the main read-out.
# Target: Muscleblind-like protein 1 (Homo sapiens) (UniProt Q9NR56)
# Test: qHTS Assay for Inhibitors of MBNL1-poly(CUG) RNA binding
# Settings: TR-FRET MBNL1-His/biotin-(CUG)12 binding, 665/545 ratio; activity change, negative = inhibition: at 57.5 µM (top of the series)
# Method in brief: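 Compounds (final 92 nM to 58 uM) are added to His-tagged MBNL1 and biotin-(CUG)12, then terbium anti-His antibody and streptavidin-XL665 (5 nM final). After 60 min at room temperature, the 665/545 nm ratio is read.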
# On the % scale 0 is the no-effect control and ±100 the full control effect; potency means the concentration at half of the fitted maximal effect; tags describe the fitted curve by direction and shape or compound fluorescence and quenching.
# UniProt Q9NR56, sequence (Q9NR56 whole entry, looked up): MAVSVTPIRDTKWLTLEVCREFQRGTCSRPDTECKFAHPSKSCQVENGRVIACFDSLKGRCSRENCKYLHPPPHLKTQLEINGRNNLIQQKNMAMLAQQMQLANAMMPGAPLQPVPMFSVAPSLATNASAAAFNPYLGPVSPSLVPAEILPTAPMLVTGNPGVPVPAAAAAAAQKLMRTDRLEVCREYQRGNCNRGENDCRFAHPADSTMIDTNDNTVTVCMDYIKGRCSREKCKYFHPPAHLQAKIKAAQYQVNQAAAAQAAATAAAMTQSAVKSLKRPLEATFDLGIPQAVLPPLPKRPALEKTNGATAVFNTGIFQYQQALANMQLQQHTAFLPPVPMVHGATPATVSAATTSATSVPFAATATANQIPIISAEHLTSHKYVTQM
SMILES,Potency,"activity change, negative = inhibition"
COc1ccc(C(=O)NCCNc2ccc([N+](=O)[O-])cn2)cc1,"inconclusive: 31.6 µM [quencher, side channel, partial curve]",
COc1ccc(CNC(=O)C2=CC(c3ccc(OC)cc3)=NS(=O)(=O)N2C)cc1,"inconclusive: 35.5 µM [quencher, side channel, single point]",
COc1ccc(-c2ccc(NS(=O)(=O)c3ccc([N+](=O)[O-])cc3)cc2)nn1,"inconclusive: 15.8 µM [quencher, side channel, partial curve]",
O=C(NC(Cc1ccccc1)C(=O)O)/C(=C/c1cccc([N+](=O)[O-])c1)NC(=O)c1cccc(Br)c1 (stereo not given),"inconclusive: 39.8 µM [quencher, single point]",
CCOc1cc(/C=C2\SC(=Nc3ccc(F)cc3)N(c3ccc(F)cc3)C2=O)ccc1OCC(=O)O,"inconclusive: 20 µM [quencher, side channel, single point]",
CCN(CC)S(=O)(=O)c1cc(C(=O)OCC(=O)Nc2c(F)cccc2F)ccc1F,"inconclusive: 2.82 µM [fluorescent, side channel, full curve, poor fit]",
CCOc1ccccc1NC(=O)CSc1nnc(Cc2cccn2C)n1-c1ccc(F)cc1,"inconclusive: 2.82 µM [quencher, side channel, partial curve]",
CC(=O)Nc1ccc(Br)cc1C(=O)C(=O)O,"inconclusive: 0.1 µM [fluorescent, side channel, full curve]",
Cc1cccc(-c2nc3ccccc3c(=O)n2NC(=O)c2cccs2)c1,,inactive: -0.534%
CCOC(=O)CSc1nnc(CNC(=O)c2ccc([N+](=O)[O-])cc2)n1C,"inconclusive: 14.1 µM [quencher, side channel, partial curve]",
Cc1nnc(Nc2ccc3c(c2)OCO3)c2ccccc12,,inactive: 0.179%
CCCCC1=CC2=CC(=O)C(C)(OC(=O)CC)C(=O)C2=CN1Cc1ccco1 (stereo not given),"inconclusive: 39.8 µM [quencher, side channel, single point]",
CC(C)c1ccc(NCCC(=O)c2ccc(Br)cc2)cc1,"inconclusive: 0.282 µM [fluorescent, side channel, partial curve]",
Cc1cc(C)cc(NC(=O)C2CCCN(S(=O)(=O)c3cnc[nH]3)C2)c1 (stereo not given),"inconclusive: 25.1 µM [quencher, side channel, single point]",
Cc1ccsc1/C=N/NC(=O)CNC(=O)c1c(F)cccc1Cl,"inconclusive: 12.6 µM [quencher, side channel, partial curve]",
